Laboratory results from the supplement of paper PMC10126150.
Values marked as one replicate rest on one cluster of the flow cell; about a third of the high ones do not repeat.

System: ATP
Assay: switch fluorescence ratio, 500 uM ATP over buffer (Cy3 cluster intensity, sum of 5 cycles each) (fold (ratio)); higher = stronger signal-on switching upon ATP binding; sequences stand for … in TCGTCGGCAGCGTCAGATGTGTATAAGAGACAGTTTTTTTTTTTTTTTTTTTTTTTTT…TC
Details: aptamer strand: ATP DNA aptamer (quencher-CACCTGGGGGAGTATTGCGGAGGAAGG + anchor), 100 nM annealed; ATP concentration: 500 uM; one replicate
Summary of the method: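 Between each of five buffer/ATP cycles, the flow-cell was stripped with NaOH and re-annealed. Each cycle imaged Cy3-labelled switching-strand clusters, annealed to 100 nM quencher-labelled ATP aptamer on a modified Illumina MiSeq flow-cell, first in selection buffer and then after 15 min with 500 uM ATP at 22 °C. The fluorescence ratio is summed target-cycle over summed buffer-cycle Cy3 intensity per cluster, averaged per switch-domain sequence, with clusters outside 100-1000 RFU excluded.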
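Also: ATP exposure 15 min at 22 °C before imaging.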

| Sequence | switch fluorescence ratio |
| --- | --- |
| AAATTCACCT | 1.29 |
| GCCTGGAGTG | 1.09 |
| TTAAAACGCG | 1.05 |
| TTACGTTGGT | 0.971 |
| GGCTGATCGG | 0.931 |
| TAACAGGCGA | 1.17 |
| ACCGGAATGC | 1.17 |
| AGGTACATAT | 1.02 |
| GGGCTTGCAT | 0.951 |
| GCATGATAT | 0.995 |
| TGCAGCCTGT | 1 |
| CGACACGAAG | 0.992 |
| GCCGAGATGG | 1 |
| TTGGGACAGA | 1.02 |
| TGGCGCGTGC | 1.18 |
| TGGCGTCGA | 0.979 |
| CCAGCCTGGC | 1.03 |
| CTTGCATGTC | 1.09 |
| ACAATTAT | 0.949 |
| TTCTCCCTGT | 1.08 |
| CCAAGGGGA | 1.01 |
| GCAGGATGTG | 0.965 |
| ATGAGCGCAT | 1.11 |
| CCTGGGGACG | 0.971 |
| AGAACTGAGC | 1.07 |
| TGCCTTGATA | 0.97 |

| Sequence | switch fluorescence ratio |
| --- | --- |
| TTCTCATTGC | 1.96 |
| TCATACCTG | 1.03 |
| CCGATGGAGT | 1.5 |
| TACGGGGTGG | 0.976 |
| ACATTTAAAT | 0.93 |
| GGGGGTGAGC | 1.01 |
| TCATTAGATA | 1.01 |
| AGAATACCGG | 0.969 |
| CTCTTCTCGT | 0.959 |
| CAGGCCTGTA | 1 |
| TGACACTTCA | 1.1 |
| TTCCTTAT | 1.01 |
| CCACAAAGTC | 1.17 |
| CTTGGCACAA | 1.04 |
| ATCAGGTTCG | 1.01 |
| GCACAGGGAG | 1.11 |
| TCCCCCCTCA | 1.68 |
| CATGTGGTGT | 0.983 |
| CCGTTAGTTG | 1.06 |
| CGGGTTATAC | 1.44 |
| GTTAAAGGTT | 1.08 |
| CGGACCGAAA | 0.953 |
| GTACAAATGG | 0.995 |
| CTTGAGCCCC | 1.44 |
| TTAGATGGTA | 0.977 |
| GCGGGGGAGC | 0.957 |

| Sequence | switch fluorescence ratio |
| --- | --- |
| CGTGTATGAA | 1.01 |
| GATCATCCCT | 1.05 |
| GTTGCTTACC | 1 |
| GCCATTCAAC | 1.03 |
| AAGCGCAGAT | 0.988 |
| ACGCCTCTTG | 1.01 |
| GATATCGGCG | 1.02 |
| TTGGCGGGT | 0.971 |
| CGAGCAATCG | 3.55 |
| ACGGTCCGTT | 1.01 |
| CAGCCGGGCG | 0.979 |
| GTCAGCTTAG | 0.998 |
| TAGAATATGC | 1.05 |
| GAATGCCACG | 1.09 |
| TTTAATCACG | 1.03 |
| ACCATATTGG | 1.01 |
| GCGGTATCT | 1.02 |
| CAGTAAAGTA | 1.05 |
| TAGTACGGCG | 1.01 |
| CCTTGGCCCG | 1.06 |
| CCCATAGAGT | 0.99 |
| TTTTTGGAC | 1.08 |
| CACTTTTTCT | 1.02 |
| TGAAATTCCT | 1.27 |
| CGTTTCGAGA | 1.01 |
| AAATGTTTGA | 0.984 |

| Sequence | switch fluorescence ratio |
| --- | --- |
| TGTGGGCATG | 0.94 |
| TAGCGTTGG | 1.02 |
| TGTAAGGAGT | 1.04 |
| TGAATCTCGA | 1.05 |
| TCCTGCTTAG | 1.05 |
| CCGGCTTTCA | 1.01 |
| TAACCGTTCA | 0.992 |
| TGCGGAGCTC | 1.06 |
| TATTGCAGCT | 0.977 |
| TATGGGGCCT | 1.05 |
| TCCAGGCTGC | 1.12 |
| CGGCTAAGTC | 1.1 |
| CCCAAGGTTT | 1.11 |
| GGTAAACTCG | 0.966 |
| GGACTGTCTG | 0.949 |
| GCGAGTCACC | 1.18 |
| TCTCAATAGT | 1.07 |
| GCATTGTCAC | 1.03 |
| GGTCACACCC | 1.09 |
| ACGTATCAGT | 1.07 |
| CGCATAGTTT | 1.08 |
| GAAGACTTAA | 0.976 |
| ATTGAAGTTG | 0.983 |
| TTGATTGTC | 1.03 |
| GTTCAATGGG | 0.97 |
| TTCTCGGCGA | 2.76 |

| Sequence | switch fluorescence ratio |
| --- | --- |
| CCTGTTTGTC | 0.967 |
| AACGGGGAAA | 1.01 |
| TACGGCAGCG | 1.02 |
| TGATATAGTT | 0.986 |
| TTAGCACGGC | 1.05 |
| AAGCAAATGT | 1.01 |
| AATTGTTGG | 1.09 |
| GGGGGTTAAC | 0.991 |
| CATCGCCTTG | 0.993 |
| AGATGAGTTT | 1.01 |
| TCATTCATAT | 1.01 |
| TCAGATGCGG | 1.05 |
| AACCACGTGT | 1 |
| ACGAGGACGC | 1.1 |
| GTTACTCGAC | 1.23 |
| GATGGATTAC | 1.33 |
| TAGAGACCGC | 1.08 |
| GTCATTCTTG | 0.98 |
| CCGAGGGGAG | 1.06 |
| AACCGCCAAG | 1.1 |
| ACTTCATGCA | 1.04 |
| ATGGACGCCC | 1.02 |
| CCAATTGTTT | 1.02 |
| CCGAAGTGAG | 3.24 |
| AGCCCGTCGG | 1.02 |
| TATAGCGTAT | 1.04 |

| Sequence | switch fluorescence ratio |
| --- | --- |
| TCTCAAATCG | 0.936 |
| TGGAGGATAG | 1 |
| CCACGCACCT | 1.72 |
| TTATCAGTTC | 0.963 |
| GCTTGGGCTC | 1.04 |
| TCTTTGTGCT | 1.01 |
| GGCGGCGGTG | 0.997 |
| AGCTCGGAAA | 1.01 |
| CTTTGGACG | 1.03 |
| TTCTCCCGTA | 1.07 |
| AACGCAACAA | 1.97 |
| AGTGAATGTG | 0.991 |
| GTGGCAAGGT | 0.992 |
| ATGTGAAGAC | 1.01 |
| CAAGTTATAG | 1.02 |
| CAAGGATAGA | 1.05 |
| GGGGCGATCA | 1.02 |
| CGAATTTGTA | 1.02 |
| TAATGATGTG | 1.02 |
| CTTATTCCAA | 1.01 |
| CGCTAGAATT | 0.971 |
| GCGGAAATGG | 1.01 |
| TGACGTGGAG | 0.968 |
| AAGTGGTTAA | 0.985 |
| GTCTCTCGCG | 0.99 |
| TGTGCATTAC | 2.02 |

| Sequence | switch fluorescence ratio |
| --- | --- |
| TGAAATAGTC | 0.933 |
| GAGCCATCTA | 0.95 |
| CTAACCCGGT | 1.03 |
| ATATATTGTG | 1.02 |
| GAATGGGCTC | 0.949 |
| GCACCGCAGG | 1.03 |
| CCCCTGTCAT | 1.07 |
| AGCGTGAGA | 0.967 |
| ATAGCTATCA | 0.966 |
| AGGCAACTCC | 1.24 |
| AGGTCGCCCC | 0.974 |
| TCGATGTGCA | 0.995 |
| CTTGGATGTG | 1.04 |
| GCAGCGATTT | 1.21 |
| GAACTTAGTT | 1.01 |
| GCGAGGTTCA | 0.977 |
| TACAAAAGTT | 1.03 |
| CTCGTCTACG | 0.988 |
| TAGACTCGGC | 1.08 |
| AGAGAGATAG | 0.967 |
| CAGAAGAGTT | 0.98 |
| ATCTGAAAC | 1 |
| TACTAGCCGG | 0.976 |
| GAGCATTTTG | 0.984 |
| TGCGAAATGG | 1.11 |
| ACGGTTCATC | 0.985 |

| Sequence | switch fluorescence ratio |
| --- | --- |
| TTCTTGTCTT | 0.99 |
| GTGTCGCACT | 0.994 |
| GCTGCTCGA | 0.988 |
| TAAATCTAA | 1 |
| CCCCGTTTCA | 1.07 |
| GTTGCTGTCT | 0.977 |
| CAGACGAGCA | 1.29 |
| AATTCATTCG | 1.03 |
| TGTTTAAAT | 1 |
| TACGGTACAA | 1.4 |
| TGGATATGGA | 0.985 |
| GTTGTGCAT | 1.02 |
| GGTGATAATC | 1.05 |
| TCACACAGAC | 1.19 |
| AATTTTACT | 1.01 |
| AAAGAAAATT | 0.996 |
| AATTGGGCGT | 1.01 |
| CGGATTTCCT | 1.6 |
| GAGGGTTGGT | 0.989 |
